According to the supplement of paper PMC12217912:
The other results are listed elsewhere or left out. Sequences were assembled here from the parent chain. Inactive controls read about 0.05.

B1: TEV protease; numbered along this chain (parent)
chain: MGESLFKGPRDYNPISSSICHLTNESDGHTTSLYGIGFGPFIITNKHLFRRNNGTLVVQSLHGVFKVKDTTTLQQHLVDGRDMIIIRMPKDFPPFPQKLKFREPQREERICLVTTNFQTKSMSSMVSDTSCTFPSGDGIFWKHWIQTKDGQCGSPLVSTRDGFIVGIHSASNFTNTNNYFTSVPKNFMELLTNQEAQQWVSGWRLNADSVLWGGHKVFMVKPEEPFQPVKEATQL

Variants of: B1
Assay: raw area under fraction-flipped curve 0-4 h after induction (AUC4h, not background-subtracted), DNA-recorder readout of cleavage of the substrate (dimensionless); higher = more cleavage of the substrate by the protease variant
Details: temperature: 34 °C; time window: 0-4 h after rhamnose induction
Procedure: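 In vivo DNA recorder in E. coli TOP10(DE3) ΔrhaA at 34 °C. Each TEVp single-site mutant (parent TEVp 0) is paired with a single-site variant of the 7-mer TEVs (canonical ENLYFQ|S). The substrate sits between flexible linkers in a Bxb1-sfGFP-TEVs-SsrA fusion, so cleavage stabilises Bxb1 and speeds flipping of a recombination array, read by NGS. The value is the raw area under the fraction-flipped curve over 0-4 h after rhamnose induction (AUC4h), with ≥20 reads per time point. It is not background-subtracted; inactive controls average about 0.047.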
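Also: Bxb1 expression induced with 0.2% (w/v) L-rhamnose at OD600 near 0.5, cultures sampled hourly, flipped fraction per protease–substrate barcode pair counted by paired-end Illumina sequencing.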

Row | Variant | area with substrate EALYFQS | area with substrate ECLYFQS | area with substrate EDLYFQS | area with substrate EFLYFQS | area with substrate EHLYFQS | area with substrate EILYFQS | area with substrate ELLYFQS | area with substrate EMLYFQS | area with substrate EQLYFQS | area with substrate ERLYFQS | area with substrate ESLYFQS | area with substrate EVLYFQS | area with substrate EWLYFQS | area with substrate EELYFQS | area with substrate EGLYFQS | area with substrate EKLYFQS | area with substrate EYLYFQS | area with substrate EPLYFQS | area with substrate ETLYFQS
1 | S171N | 0.0634 | 0.0454 | 0.0585 | 0.0918 | 0.0746 | 0.0558 | 0.0578 | 0.0671 | 0.052 | 0.0713 | 0.0501 | 0.0895 | 0.0974 | – | – | – | – | – | –
2 | F187S | 0.136 | 0.0628 | – | – | – | 0.0688 | – | – | 0.0565 | 0.0539 | 0.061 | 0.0497 | 0.066 | 0.0584 | 0.0653 | 0.0623 | 0.0775 | – | –
3 | F187K | 0.0582 | 0.06 | – | – | – | 0.045 | 0.0397 | – | – | 0.0594 | 0.0671 | 0.036 | 0.0627 | – | 0.0937 | – | – | 0.0593 | –
4 | F187V | 0.138 | 0.0607 | 0.153 | – | – | – | – | – | – | – | 0.087 | – | 0.136 | – | 0.0726 | 0.0925 | – | 0.151 | –
5 | K185D | 0.112 | – | – | – | – | – | – | 0.12 | – | 0.113 | – | – | – | 0.117 | – | – | – | – | 0.124
6 | K185Y | 0.119 | 0.102 | 0.123 | – | – | 0.0727 | 0.0668 | 0.105 | 0.118 | 0.0939 | 0.0933 | 0.0999 | 0.135 | 0.0912 | 0.0906 | 0.111 | – | 0.184 | –
7 | G162E | 0.151 | 0.0905 | 0.111 | – | 0.125 | – | – | 0.0959 | 0.116 | – | 0.0825 | 0.0838 | – | 0.106 | 0.085 | 0.1 | – | 0.0911 | –
8 | G162Y | 0.109 | 0.105 | 0.105 | – | – | 0.0809 | 0.0774 | 0.0868 | 0.107 | – | 0.0961 | 0.0917 | 0.0636 | 0.0977 | – | 0.0936 | – | 0.0937 | 0.0901
9 | F180T | 0.056 | 0.0734 | – | – | – | 0.0384 | – | – | – | – | – | 0.0554 | – | 0.0474 | 0.0376 | 0.0665 | – | 0.0567 | 0.052
10 | A170N | 0.0628 | 0.0621 | 0.0466 | – | – | 0.0367 | – | – | – | 0.0489 | 0.0495 | – | – | 0.0651 | 0.0641 | 0.0605 | – | – | 0.0656
11 | S169V | 0.0624 | – | 0.0902 | – | – | 0.0593 | – | 0.0465 | 0.0846 | – | 0.0462 | – | 0.0716 | – | 0.0496 | 0.0386 | – | 0.0624 | 0.0578
12 | S169H | 0.0504 | 0.0716 | – | 0.0627 | 0.0729 | 0.0554 | 0.064 | 0.0573 | 0.0672 | 0.05 | 0.0641 | 0.0873 | – | 0.055 | – | 0.0698 | – | 0.0603 | –
13 | N177F | 0.072 | 0.0809 | – | – | – | 0.0722 | 0.0629 | 0.0635 | 0.0669 | 0.0666 | 0.0615 | 0.0767 | 0.0724 | 0.067 | 0.0516 | 0.0709 | 0.083 | 0.0378 | –
14 | S158T | 0.108 | 0.0801 | – | – | – | – | – | – | 0.0782 | – | 0.106 | 0.0983 | – | – | – | 0.092 | – | 0.0962 | –
15 | F173V | 0.0908 | 0.11 | – | 0.0967 | – | – | 0.0961 | 0.107 | 0.146 | 0.0813 | 0.0898 | 0.107 | 0.076 | – | – | 0.107 | – | 0.0971 | 0.16
16 | Y179G | 0.0377 | 0.0457 | 0.0657 | 0.0609 | – | – | 0.0592 | 0.0681 | 0.0425 | – | – | – | – | – | – | – | – | – | 0.0678
17 | Y179P | 0.0499 | 0.0505 | – | 0.0594 | 0.0526 | 0.0812 | – | 0.0544 | – | 0.0466 | 0.0559 | – | 0.0661 | 0.0506 | 0.0531 | – | 0.0484 | 0.0591 | 0.0515

Row | Variant | area with substrate EALYFQS | area with substrate ECLYFQS | area with substrate EDLYFQS | area with substrate EFLYFQS | area with substrate EHLYFQS | area with substrate EILYFQS | area with substrate ELLYFQS | area with substrate EMLYFQS | area with substrate EQLYFQS | area with substrate ERLYFQS | area with substrate ESLYFQS | area with substrate EVLYFQS | area with substrate EWLYFQS | area with substrate EELYFQS | area with substrate EGLYFQS | area with substrate EKLYFQS | area with substrate EYLYFQS | area with substrate EPLYFQS | area with substrate ETLYFQS
18 | Y179H | 0.069 | 0.0535 | 0.0711 | – | 0.0578 | 0.0601 | 0.0504 | – | 0.0583 | – | 0.065 | – | 0.0648 | 0.0515 | 0.0667 | – | – | 0.072 | –
19 | N178L | 0.199 | 0.0961 | – | – | – | – | – | – | 0.149 | 0.091 | 0.0848 | 0.113 | – | – | – | 0.12 | – | – | 0.18
20 | T181D | 0.0617 | – | – | 0.0624 | – | – | – | 0.0786 | 0.0673 | 0.0869 | 0.0679 | 0.0594 | 0.0619 | – | – | – | – | – | –
21 | T181W | 0.0734 | – | – | – | – | 0.0496 | – | – | 0.0596 | 0.0764 | 0.0645 | – | – | 0.0727 | 0.0924 | – | – | 0.0463 | –
22 | M188G | 0.103 | – | – | 0.11 | – | – | – | 0.122 | 0.136 | – | 0.105 | 0.0983 | – | 0.117 | 0.0646 | – | – | – | –
23 | M188Q | 0.08 | 0.109 | – | – | – | – | – | – | – | 0.156 | – | 0.0972 | – | 0.132 | 0.101 | 0.102 | – | 0.114 | –
24 | M188H | 0.134 | 0.158 | 0.131 | – | – | 0.109 | – | – | 0.0942 | 0.112 | 0.0945 | 0.124 | – | – | 0.0944 | – | – | 0.101 | 0.115
25 | M188V | 0.105 | – | – | – | – | 0.094 | 0.0995 | 0.112 | – | – | – | 0.0994 | – | – | – | – | – | 0.122 | 0.13
26 | T159H | 0.156 | 0.126 | 0.195 | – | – | – | 0.107 | – | – | – | – | – | – | – | 0.0881 | – | – | – | –
27 | I167P | 0.0493 | 0.0388 | – | 0.0357 | 0.0537 | – | 0.0535 | 0.0366 | 0.0586 | – | 0.0481 | 0.0584 | 0.0465 | 0.0393 | – | 0.021 | 0.0379 | – | –
28 | I167L | 0.0879 | – | – | – | 0.0944 | 0.0922 | – | – | 0.11 | 0.0974 | 0.0958 | 0.105 | 0.0949 | 0.102 | 0.0782 | – | – | – | 0.106
29 | I167Q | 0.0721 | – | – | – | 0.0903 | 0.0795 | – | 0.0969 | – | 0.0721 | 0.0714 | 0.0806 | 0.0739 | – | – | 0.0751 | 0.0746 | – | –
30 | I167M | 0.108 | 0.0755 | 0.107 | – | – | 0.0865 | – | 0.117 | – | 0.0761 | 0.0861 | 0.0763 | 0.08 | – | – | 0.0958 | – | – | –
31 | V165H | 0.0497 | – | 0.0531 | – | – | – | – | – | – | 0.0548 | – | 0.0562 | 0.0299 | – | – | 0.0199 | – | 0.0896 | –
32 | V165Q | 0.0465 | 0.0469 | 0.0595 | – | 0.106 | – | 0.0719 | – | – | 0.0678 | 0.0493 | 0.0692 | – | 0.0534 | – | – | 0.0449 | 0.0475 | –
33 | V165K | 0.052 | – | 0.046 | 0.0589 | 0.0485 | – | – | – | 0.064 | 0.0484 | 0.0591 | – | 0.0662 | – | 0.0557 | 0.0581 | 0.0597 | – | 0.0622
